Measurements as given in PubChem BioAssay AID743279 (National Center for Advancing Translational Sciences (NCATS), 2014).
Among all 360,000 compounds or so, about 17,000 (4.7%) were called active. The inconclusive results got no clear call from the source; some entries with a clear call stand among them for comparison. Rule as the data show it: active = activity change below about -50%; inconclusive = mostly about -30% to -49%; inactive = weaker than that.
% is scaled to controls: 0 for no effect and ±100 for the full control effect.

Assay: qHTS for Inhibitors of Inflammasome Signaling: IL-1-beta AlphaLISA Primary Screen
Settings: THP-1 LPS/ATP IL-1B secretion, 16 h; at 57.5 µM, active compounds read low
Method in brief: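 THP-1 cells pretreated 1 hr with compounds (up to 57.5 uM final), then stimulated with LPS (250 ng/mL final) plus ATP (1.25 mM final); secreted IL-1B measured by AlphaLISA after 16 hr, decreased signal indicating inhibition.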
With `CCOC(=O)CN(C(=O)CSc1nnc(CNc2ccc(C)cc2C)o1)c1ccccc1` the activity change was inactive: -2.71%.
In the case of `Cc1ccc(Cl)cc1N1CCN(C(=O)c2ccc3nc[nH]c3c2)CC1`, the activity change is reported as inconclusive: -41.8%.
With `CCOc1ccc(C2=CC(c3ccccc3)n3ncnc3N2)cc1` (configuration not stated) the activity change was inconclusive: -33.3%.
With `COc1ccc(NC(=O)CN(C)C(=O)CNC(=O)c2ccc3c(c2)OCO3)cc1` the activity change was inactive: 35%.
In the case of `CCN(CC)CCNC(=S)Nc1ccc2nc(N3CCOCC3)cc(C)c2c1`, the activity change is reported as inconclusive: -36.9%.
For `CCOc1ccccc1NC(=O)Nc1ccc(CC#N)cc1`, the activity change was inconclusive: -45.4%.
In the case of `O=C1CN(S(=O)(=O)c2cccc(Cl)c2Cl)CCN1`, the activity change is reported as inactive: 7.7%.
For `O=C(c1ccoc1)N1CCN(c2cc(-c3cccnc3)nc3cc(-c4cccc(Cl)c4)nn23)CC1`, the activity change was inconclusive: -40.3%.
With `CC1CCCN(c2ccc([N+](=O)[O-])cc2C(=O)c2ccccc2)C1` (configuration not stated) the activity change was inactive: 90.3%.
In the case of `CCOc1cc(C(=O)NCc2ccccc2)ccc1OCC(=O)N1CCOCC1`, the activity change is reported as inactive: 0.367%.
In the case of `CC1(C)C(CSc2nc3ccccc3[nH]2)C1(Cl)Cl` (configuration not stated), the activity change is reported as inconclusive: -30.1%.
In the case of `CC(C(=O)c1ccc(-c2ccccc2)cc1)[n+]1cccc(NC(=O)c2ccccc2)c1` (configuration not stated), the activity change is reported as inconclusive: -31.5%.
With `CCC(C(=O)NCc1ccc(F)cc1)N(CCc1ccccc1)C(=O)c1snc(C(N)=O)c1N` (configuration not stated) the activity change was inconclusive: -32.1%.
With `O=C(Nc1cccc(Cl)c1)c1ccc2ncsc2c1` the activity change was inconclusive: -35.4%.
For `COc1ccc2cc(C(=O)Nc3ccc(S(N)(=O)=O)cc3)sc(=O)c2c1OC`, the activity change was inconclusive: -32.1%.
In the case of `Cc1ccc(S(=O)(=O)N2CC3(O)CN(C(=O)OC(C)C)N(C(=O)OC(C)C)CC3(OC(=O)Nc3cccs3)C2)cc1` (configuration not stated), the activity change is reported as active: -79.8%.
In the case of `C[C@@H](CO)NC(=O)c1ccc2c3n(nc2c1)-c1ccc(Cl)cc1CO3`, the activity change is reported as inconclusive: -46.6%.
For `Cc1ccc(-n2c(Cc3ccccc3)n[nH]c2=S)c(C)c1`, the activity change was active: -66.5%.
With `CCN1C[C@@H]2[C@@H]3C(=O)N(Cc4ccccc4)C(=O)[C@@H]3[C@](Cc3ccccc3)(C(=O)OC)N2C1=NC1CCCCC1` the activity change was inconclusive: -35.6%.
In the case of `CCCCc1cc(=O)oc2c3c(cc(OCC(=O)N4CCC[C@H]4C(=O)O)c12)OC(C)(C)CC3`, the activity change is reported as inactive: 5.2%.
In the case of `COc1ccccc1N1CCN(CC(=O)Nc2cc(F)ccc2C)CC1`, the activity change is reported as inconclusive: -36.7%.
For `COc1ccc(-c2cc3nc4ccccc4n3c(N)c2C#N)cc1`, the activity change was inactive: 0%.
In the case of `c1ccc2c(C3=NNC(=NC4CC4)SC3)c[nH]c2c1`, the activity change is reported as active: -96.1%.
In the case of `Cc1ccc(C(=O)N2CCN(c3ccc([N+](=O)[O-])cc3-n3cccc3)CC2)cc1`, the activity change is reported as inconclusive: -38.6%.
With `CCN(CC)C(=O)Cn1cc(C(=O)C(=O)NCCc2ccccc2)c2ccccc21` the activity change was inconclusive: -31.3%.
In the case of `CCCCCN(C(=O)CN(C)Cc1ccc(OC)cc1OC)c1c(N)n(CCCC)c(=O)[nH]c1=O`, the activity change is reported as inconclusive: -33%.
With `CCN1C(=O)C(Cc2nc3ccccc3c(=O)n2C)c2ccccc21` (configuration not stated) the activity change was inactive: 0%.
For `CCCCC(=O)N(C)c1c(CC)nc2c(OCc3ccc(C(F)(F)F)cc3)cccn12`, the activity change was inconclusive: -47.3%.
For `CCOc1cc(NC(=O)c2cccs2)c(OCC)cc1NC(=O)CCC(=O)NCC1CCCO1` (configuration not stated), the activity change was inactive: -0.891%.
With `Cc1ccc(CN2CCN(CC(=O)NCCCN3CCN(c4ccc(F)cc4)CC3)C2=O)cc1` the activity change was inconclusive: -49.2%.
For `CCN1C(=O)[C@H]2[C@@H](c3ccc(-c4ccc(C(C)=O)cc4)c(OC)c3)N[C@@](Cc3ccccc3)(C(=O)OC)[C@H]2C1=O`, the activity change was inconclusive: -33.3%.
In the case of `Cc1ccnn1-c1ccc(C(=O)NCc2ccccc2CN2CCOCC2)cc1`, the activity change is reported as inactive: -16.9%.
In the case of `CN(C)c1nc2c(c(=O)[nH]c(=O)n2C)n1Cc1ccccc1Br`, the activity change is reported as inactive: 33.3%.
In the case of `O=[N+]([O-])c1cc(-c2csc(NCCc3nc4cc(Cl)c(Cl)cc4n3CCCO)n2)ccc1Cl`, the activity change is reported as inconclusive: -42.4%.
For `C/[N+]([O-])=C\c1ccc([N+](=O)[O-])o1`, the activity change was inconclusive: -32%.
With `Cc1ccc(Nc2nc(CSc3nnc(-c4ccccc4)n3C)cs2)cc1` the activity change was inconclusive: -38.3%.
In the case of `CC(C)(C)OC(=O)N(CCc1ccccc1)Cc1cccc(OCc2cccc(NC(=O)C3CC3)c2)c1`, the activity change is reported as inconclusive: -39.7%.
For `O=C(C1=C[C@@H](C2CC2)C[C@@H](OCc2ccc(CO)cc2)O1)N1CCN(Cc2ccccc2)CC1`, the activity change was inconclusive: -34%.
In the case of `C=CCn1c(O)c(N=Nc2ccccc2O)c2ccccc21`, the activity change is reported as inconclusive: -31.6%.
In the case of `N#C/C(=C\c1cn[nH]c1-c1ccc(Cl)cc1)C(=O)NCc1ccccc1`, the activity change is reported as active: -57.9%.
With `CCN1CCN(c2ccc(S(=O)(=O)N3CCOCC3)cc2NC(=O)C(C)Oc2ccc(F)cc2)CC1` (configuration not stated) the activity change was inconclusive: -42.5%.
With `Cc1cnc(CN2CCc3c([nH]c4ccccc34)C2CC(C)C)[nH]1` (configuration not stated) the activity change was inconclusive: -40.6%.
In the case of `COc1cc2cc(CN(C(=O)Nc3ccccc3)C3CCCC3)c(=O)[nH]c2cc1OC`, the activity change is reported as inconclusive: -30.5%.
For `Cc1ccc(S(=O)(=O)N2CCOCC2)cc1N/N=C(\C#N)c1nc2ccccc2[nH]1`, the activity change was inactive: 2.04%.
With `COc1cccc(-c2cc(C(F)(F)F)n3nc(C(=O)N4CCCCC4c4cccnc4)cc3n2)c1` (configuration not stated) the activity change was active: -71.8%.
In the case of `CCOC(=O)c1ccccc1NC(=O)/C=C/C(=O)O`, the activity change is reported as inconclusive: -31.4%.
With `COc1ccc(CNCCC(c2ccc(OC(C)C)cc2)c2ccccc2OC)cc1` (configuration not stated) the activity change was active: -97%.
In the case of `O=C(c1ccc2c(c1)CCN2S(=O)(=O)c1ccccc1)N1CCN(c2ccccc2)CC1`, the activity change is reported as inconclusive: -38.2%.
With `O=C(O)C1C2CC3C(OC(=O)C31)C2Cl` (configuration not stated) the activity change was inactive: -5.9%.
With `N#CC(C#N)=Cc1ccc(-c2ccc(S(=O)(=O)N=C(N)N)cc2)o1` the activity change was inconclusive: -49.2%.
With `CCCOc1cc(NCc2ccccc2)c2ncn(C(C)C)c2c1` the activity change was inconclusive: -34%.
In the case of `COC(=O)c1ccccc1NC(=O)Cn1cc2c(n1)CCC(C)C2` (configuration not stated), the activity change is reported as inconclusive: -31.7%.
